# Data: PubChem BioAssay (Tox21)
# This list was built around the results that the source calls inconclusive (neither active nor inactive); the mix of calls is not that of the screen. For some assays here: Potencies of inconclusive entries are doubtful fits and often do not repeat. Active and inactive are the calls of the source. Unless noted, the call rests on the fitted dose curve; in most records, active means well fitted curve in the direction sought with a large enough effect in the repeat runs; inconclusive means weak or mixed curves; inactive means no such curve, though single readings can be large; an effect the other way counts as inactive or inconclusive.
# How the values were obtained:
# [1] = qHTS assay to identify small molecule antagonists of the vitamin D receptor (VDR) signaling pathway - cell viability counter screen (AID 743225); conditions: VDR-bla HEK293T viability, CellTiter-Glo luminescence, 16 h; viability change, negative = cytotoxic: at 61 µM (top of the series) unless noted; further: nearly all actives have a fitted effect of over 50% in size; further: potency means the concentration at half of the fitted maximal effect; on viability change, negative = cytotoxic: on the % scale 0 is the no-effect control and ±100 the full control effect
# Procedure, shortened: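 Viability counter screen run in the same wells as the beta-lactamase reporter assay: HEK 293T VDR-UAS-bla cells, 16 h compound exposure at 37C with 3 nM (final) 1-alpha,25-dihydroxyvitamin D3. CellTiter-Glo luminescence, 30 min, room temperature.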
# [2] = qHTS assay to identify small molecule antagonists of the estrogen related receptor signaling pathway with the pleiotropic PPARgamma coactivator (PGC) from Tox21 10K library - cell viability counter screen (AID 1224840; active means well fitted cell-killing curve with a large enough effect in the repeat runs, not every such curve was filed as active; inconclusive means weak or mixed curves, or effect the other way; inactive means no such curve, though single readings can be large or run the other way; further: on the % scale 0 is the no-effect control and ±100 the full control effect; nearly all actives have a fitted effect of over 40% in size)
# Procedure, shortened: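 Here the PGC/ERR cells serve as a cytotoxicity control: they are exposed to compounds for 17.5 hours at 37 C, and live-cell signal is quantified using CellTiter-Fluor fluorescence.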
# [3] = qHTS assay to identify small molecule antagonists of the glucocorticoid receptor (GR) signaling pathway - cell viability counter screen (AID 720693); conditions: GR-bla HeLa viability, CellTiter-Glo luminescence, 18 h, with 5 nM dexamethasone present; viability change, negative = cytotoxic: at 58.5 µM (top of the series); further: nearly all actives have a fitted effect of over 55% in size; further: potency means the concentration at half of the fitted maximal effect
# [4] = qHTS assay to identify small molecule antagonists of the androgen receptor (AR) signaling pathway using the MDA cell line - cell viability counter screen (AID 743041; further: potency means the concentration at half of the fitted maximal effect; nearly all actives have a fitted effect of over 45% in size); conditions: MDA-kb2 viability, CellTiter-Fluor, 16 h, cells co-treated with R1881 androgen agonist; viability change, negative = cytotoxic: at 70.3 µM (top of the series)
# Procedure, shortened: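 Viability counter screen run alongside the AR antagonist reporter: cells seeded 5 h before compound, R1881 added, 16 h incubation at 37C without CO2, fluorescent CellTiter-Fluor signal quantified.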
# [5] = molecular target: Aryl hydrocarbon receptor (Homo sapiens) (UniProt P35869); experiment: qHTS assay to identify small molecule that activate the aryl hydrocarbon receptor (AhR) signaling pathway (AID 743085); further: potency means the concentration at half of the fitted maximal effect; nearly all actives have a fitted effect of over 15% in size
# Chain of UniProt P35869 (P35869 whole entry, looked up): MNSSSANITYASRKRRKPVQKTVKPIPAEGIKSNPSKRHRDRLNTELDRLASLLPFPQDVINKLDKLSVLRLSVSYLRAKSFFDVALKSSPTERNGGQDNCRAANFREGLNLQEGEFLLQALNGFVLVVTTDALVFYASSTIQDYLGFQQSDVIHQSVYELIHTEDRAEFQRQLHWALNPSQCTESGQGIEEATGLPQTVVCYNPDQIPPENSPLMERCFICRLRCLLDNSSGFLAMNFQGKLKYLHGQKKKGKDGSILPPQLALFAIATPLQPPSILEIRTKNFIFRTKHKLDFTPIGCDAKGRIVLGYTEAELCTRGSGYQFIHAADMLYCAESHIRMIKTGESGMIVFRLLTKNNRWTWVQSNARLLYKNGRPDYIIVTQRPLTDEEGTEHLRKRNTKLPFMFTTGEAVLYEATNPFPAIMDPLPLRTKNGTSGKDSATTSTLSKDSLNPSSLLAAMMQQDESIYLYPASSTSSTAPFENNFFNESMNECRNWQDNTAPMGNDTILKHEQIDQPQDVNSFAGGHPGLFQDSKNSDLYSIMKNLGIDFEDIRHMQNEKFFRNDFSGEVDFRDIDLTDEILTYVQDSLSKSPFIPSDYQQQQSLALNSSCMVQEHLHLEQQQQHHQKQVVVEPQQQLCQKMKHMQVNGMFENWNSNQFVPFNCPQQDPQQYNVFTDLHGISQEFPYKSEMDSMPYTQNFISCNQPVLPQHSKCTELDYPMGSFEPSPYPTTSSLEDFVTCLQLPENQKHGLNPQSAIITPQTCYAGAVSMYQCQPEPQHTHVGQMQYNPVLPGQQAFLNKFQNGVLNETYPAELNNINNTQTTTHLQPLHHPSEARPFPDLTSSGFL
# Procedure, shortened: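 Luminescence read-out: ONE-Glo reagent, 30 min at room temperature, in HG2L7.5c1 HepG2 reporter cells treated 24 h at 37C. Viability was measured beforehand by CellTiter-Fluor fluorescence after 30 min at 37C.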
# [6] = qHTS assay to identify small molecule agonists of the hypoxia (HIF-1) signaling pathway - cell viability counter screen (AID 1224844; calls by dose curve; further: potency means the concentration at half of the fitted maximal effect; nearly all actives have a fitted effect of over 50% in size)
# Procedure, shortened: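 Multiplexed with the HRE beta-lactamase assay, this viability read used CellTiter-Glo luminescence (30 min, RT) on HRE-bla ME-180 cells treated 17 hrs with compounds in 0.5% dialyzed FBS medium.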
# [7] = A CellTox Green Cytotoxicity Assay to monitor cytotoxicity in HepG2 cells - 40 hour (AID 1224879); further: nearly all actives have a fitted effect of over 40% in size; further: potency means the concentration at half of the fitted maximal effect
# Procedure, shortened: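 Nonlytic assay: viable cells exclude the dye, so fluorescence scales with cell death. HepG2 at 600 cells/well, compounds added after 5 h, signal read across 40 h.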
# [8] = qHTS assay to identify small molecule antagonists of the TGF-beta/Smad signaling pathway (AID 1346924; active means well fitted inhibition curve with a large enough effect in the signal ratio in the repeat runs, not every such curve was filed as active; inconclusive means weak or mixed curves; the % refers to the signal ratio; further: potency means the concentration at half of the fitted maximal effect); conditions: SBE-bla HEK293T, TGF-beta/Smad reporter, beta-lactamase ratio; activity, negative = inhibition: at 76.8 µM (top of the series) unless noted
# Procedure, shortened: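 SBE-bla HEK 293T cells were plated overnight, then received compound in DMSO plus TGF-beta1 (added as a 0.25 ng/mL solution) and were incubated 5 h at 37 C. Beta-lactamase reporter activity was read after 2 h at room temperature with LiveBLAzer B/G FRET substrate (ex 405, em 460/530 nm).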
# [9] = Caspase-3/7 induction in CHO-K1 cells by small molecules, qHTS cell viability counter screen (AID 1346979); further: nearly all actives have a fitted effect of over 35% in size; further: potency means the concentration at half of the fitted maximal effect; on activity change, negative = cytotoxicity: on the % scale 0 is the no-effect control and ±100 the full control effect
# Procedure, shortened: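 CHO-K1 wt, 1,500 cells/well; 5hr pre-incubation 37C/5% CO2; compound pin transfer (DMSO); 16hr exposure; CellTiter-Fluor added, 1hr, fluorescence read.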
# [10] = qHTS assay to identify small molecule antagonists of the estrogen receptor alpha (ER-alpha) signaling pathway using the BG1 cell line (AID 743080; calls by dose curve;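 further: BG1 cells stimulated with 17beta-estradiol alongside compound; nearly all actives have a fitted effect of over 25% in size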; further: potency means the concentration at half of the fitted maximal effect; on activity change, negative = inhibition: on the % scale 0 is the no-effect control and ±100 the full control effect); conditions: BG1Luc4E2 ERE-luciferase antagonist mode, luminescence; activity change, negative = inhibition: at 70.3 µM (top of the series) unless noted
# Procedure, shortened: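 After 5 days in phenol-red-free 10% charcoal-stripped FBS medium, BG1-Luc-4E2 cells were seeded, left 24 h at 37 C, co-treated with compounds and 17beta-estradiol for 21.5 h, then assayed for viability and luciferase.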
# [11] = qHTS assay to identify small molecule antagonists of the estrogen receptor alpha (ER-alpha) signaling pathway using the BG1 cell line - cell viability counter screen (AID 743081); conditions: BG1Luc4E2 viability, CellTiter-Fluor, 22 h; activity change, negative = cytotoxicity: at 70.3 µM (top of the series) unless noted;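 further: compound given together with 17beta-estradiol as the ER stimulus; on the % scale 0 is the no-effect control and ±100 the full control effect; nearly all actives have a fitted effect of over 45% in size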
# [12] = qHTS RealTime-Glo MT Cell Viability Assay in HEK293 cells - 24 hour (AID 1224886); further: nearly all actives have a fitted effect of over 50% in size; further: potency means the concentration at half of the fitted maximal effect
# Procedure, shortened: (§1)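 Assay medium contained NanoLuc luciferase plus cell-permeant prosubstrate, added with HEK293 cells at 600 cells/well. After 5 h at 37 C/5% CO2 compounds were added; plates stayed at 37 C for 40 h with serial luminescence reads.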
# [13] = molecular target: Thyrotropin receptor (Homo sapiens) (UniProt P16473); experiment: qHTS assay to identify small molecule antagonists of the thyroid stimulating hormone receptor (TSHR) signaling pathway (AID 1259385; calls by dose curve; further: on the % scale 0 is the no-effect control and ±100 the full control effect; nearly all actives have a fitted effect of over 20% in size); conditions: TSHR-HEK293 cAMP HTRF, TSH-stimulated antagonist mode; activity change, negative = inhibition: at 92.4 µM (top of the series) unless noted
# Chain of UniProt P16473 (P16473 whole entry, looked up): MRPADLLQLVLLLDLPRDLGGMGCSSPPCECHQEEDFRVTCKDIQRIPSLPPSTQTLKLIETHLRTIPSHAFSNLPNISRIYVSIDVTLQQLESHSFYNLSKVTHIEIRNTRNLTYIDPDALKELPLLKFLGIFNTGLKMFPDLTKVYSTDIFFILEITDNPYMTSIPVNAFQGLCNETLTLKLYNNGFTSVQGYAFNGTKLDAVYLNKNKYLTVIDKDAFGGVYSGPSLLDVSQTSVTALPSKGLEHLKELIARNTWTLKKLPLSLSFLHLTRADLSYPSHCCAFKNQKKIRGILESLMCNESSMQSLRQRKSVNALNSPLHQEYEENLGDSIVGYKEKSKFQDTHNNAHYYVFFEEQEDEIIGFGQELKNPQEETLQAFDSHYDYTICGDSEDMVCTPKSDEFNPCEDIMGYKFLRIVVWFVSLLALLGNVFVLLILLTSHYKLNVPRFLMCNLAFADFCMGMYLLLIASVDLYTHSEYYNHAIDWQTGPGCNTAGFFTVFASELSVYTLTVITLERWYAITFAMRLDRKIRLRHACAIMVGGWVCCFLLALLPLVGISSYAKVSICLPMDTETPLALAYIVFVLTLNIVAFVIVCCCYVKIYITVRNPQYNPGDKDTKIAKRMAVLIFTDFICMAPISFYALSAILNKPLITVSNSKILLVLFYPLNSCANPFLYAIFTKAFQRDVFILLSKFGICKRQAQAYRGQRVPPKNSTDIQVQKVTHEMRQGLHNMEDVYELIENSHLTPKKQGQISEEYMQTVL
# Procedure, shortened: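 TSHR-HEK293 cells were plated and held 18 h at 37C/5% CO2, then given compound plus Ro20-1724 and stimulated with TSH at 1.5 ng/mL final. After 30 min at room temperature, cAMP was detected with cAMP-d2/anti-cAMP-cryptate (1 h) by fluorescence.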
# [14] = molecular target: Bile acid receptor (Homo sapiens) (UniProt Q96RI1); experiment: qHTS assay to identify small molecule antagonists of the farnesoid-X-receptor (FXR) signaling pathway (AID 743217; active means well fitted inhibition curve with a large enough effect in the signal ratio in the repeat runs, not every such curve was filed as active; inconclusive means weak or mixed curves, or effect the other way; inactive means no such curve, though single readings can be large or run the other way; the % refers to the signal ratio; further: on the % scale 0 is the no-effect control and ±100 the full control effect); conditions: HEK293T FXR-UAS-bla, beta-lactamase ratio, CDCA-stimulated, 16 h; activity change, negative = inhibition: at 62.6 µM (top of the series) unless noted
# Chain of UniProt Q96RI1 (Q96RI1 whole entry, looked up): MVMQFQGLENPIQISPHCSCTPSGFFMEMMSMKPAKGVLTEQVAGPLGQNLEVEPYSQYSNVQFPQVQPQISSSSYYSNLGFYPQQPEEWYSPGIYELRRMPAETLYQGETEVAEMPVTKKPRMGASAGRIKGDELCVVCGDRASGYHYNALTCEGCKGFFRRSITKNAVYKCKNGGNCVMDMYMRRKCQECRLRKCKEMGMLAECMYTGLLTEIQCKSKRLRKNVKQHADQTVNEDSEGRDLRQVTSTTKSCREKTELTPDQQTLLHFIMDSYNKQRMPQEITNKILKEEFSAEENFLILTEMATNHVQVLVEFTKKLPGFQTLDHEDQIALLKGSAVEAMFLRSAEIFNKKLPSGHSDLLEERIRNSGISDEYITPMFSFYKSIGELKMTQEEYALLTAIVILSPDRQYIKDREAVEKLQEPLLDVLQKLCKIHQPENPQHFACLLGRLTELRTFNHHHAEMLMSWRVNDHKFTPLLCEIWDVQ
# Procedure, shortened: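 In this cell-based antagonist screen, inhibition of CDCA-driven (50 uM final) UAS-beta-lactamase expression in HEK 293T cells was measured by FRET fluorescence following 16 h compound exposure at 37 °C.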
# [15] = qHTS assay to identify small molecule agonists of the vitamin D receptor (VDR) signaling pathway - cell viability counter screen (AID 743224); further: nearly all actives have a fitted effect of over 50% in size; further: potency means the concentration at half of the fitted maximal effect
# Procedure, shortened: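 Here cell health was gauged by luminescent ATP detection (CellTiter-Glo, 30 min RT) in VDR-bla cells that had been incubated with test compounds for 16 h at 37C and 5% CO2.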
# [16] = molecular target: Nuclear receptor subfamily 1 group I member 2 (Homo sapiens) (UniProt O75469); experiment: Human pregnane X receptor (PXR) small molecule agonists, qHTS assay (AID 1346982); further: potency means the concentration at half of the fitted maximal effect; nearly all actives have a fitted effect of over 35% in size
# Chain of UniProt O75469 (O75469 whole entry, looked up): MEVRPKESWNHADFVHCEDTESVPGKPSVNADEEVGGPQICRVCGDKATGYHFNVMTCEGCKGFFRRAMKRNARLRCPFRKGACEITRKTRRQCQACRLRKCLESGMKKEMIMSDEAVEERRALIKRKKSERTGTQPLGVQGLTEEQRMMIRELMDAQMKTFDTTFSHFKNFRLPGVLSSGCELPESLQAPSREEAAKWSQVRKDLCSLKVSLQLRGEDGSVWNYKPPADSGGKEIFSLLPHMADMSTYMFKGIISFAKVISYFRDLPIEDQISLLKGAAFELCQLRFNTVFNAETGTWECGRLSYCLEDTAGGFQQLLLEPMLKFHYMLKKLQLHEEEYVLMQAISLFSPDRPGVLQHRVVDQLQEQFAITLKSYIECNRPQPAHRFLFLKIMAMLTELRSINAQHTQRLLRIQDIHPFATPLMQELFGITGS
# Procedure, shortened: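 We seeded PXR-Luc HepG2 cells in assay medium containing 5% charcoal-stripped FBS, added compounds 5 hr later, incubated 24 hr, and read luminescence with ONE-Glo reagent.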
# [17] = qHTS assay to identify small molecule agonists of the peroxisome proliferator-activated receptor delta (PPARd) signaling pathway - cell viability counter screen (AID 743211); conditions: PPARd-bla HEK293H viability, CellTiter-Glo luminescence, 17 h; activity change, negative = cytotoxicity: at 62.6 µM (top of the series) unless noted; further: nearly all actives have a fitted effect of over 55% in size; further: potency means the concentration at half of the fitted maximal effect
# Procedure, shortened: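 Read-out: CellTiter-Glo luminescence, 30 min RT, measured in the same wells as the beta-lactamase reporter. Cells: GeneBLAzer PPAR delta UAS-bla HEK293H, 3000 cells/well, compound exposure 17 h at 37C.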
# [18] = qHTS RealTime-Glo MT Cell Viability Assay in HEK293 cells - 16 hour (AID 1224872); further: nearly all actives have a fitted effect of over 50% in size; further: potency means the concentration at half of the fitted maximal effect
# Procedure, shortened: as §1
# [19] = qHTS RealTime-Glo MT Cell Viability Assay in HEK293 cells - 40 hour (AID 1224874); conditions: RealTime-Glo luminescence; max response: stronger effect = lower value
# Procedure, shortened: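 Tox21 screen in HEK293 using RealTime-Glo MT chemistry, with cells and reagent co-dispensed. Luminescence proportional to viable cell number was captured at intervals during 40 h compound exposure at 37 C.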
# [20] = qHTS assay to identify small molecule antagonists of the peroxisome proliferator-activated receptor gamma (PPARg) signaling pathway - cell viability counter screen (AID 743194); conditions: PPARg-bla HEK293H viability, CellTiter-Glo luminescence, 17 h, co-treated with 50 nM rosiglitazone; activity change, negative = cytotoxicity: at 62.6 µM (top of the series) unless noted; further: nearly all actives have a fitted effect of over 55% in size; further: potency means the concentration at half of the fitted maximal effect
# Procedure, shortened: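 PPARg-UAS-bla HEK293H cells were plated, rested 5 h at 37 C, then treated with compounds plus rosiglitazone (50 nM final) for 17 h at 37 C; viability was then read by CellTiter-Glo luminescence after 30 min at room temperature.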
# Tags describe the fitted curve by direction and shape or compound fluorescence and quenching.
structure (smiles),measurement,setting,value
CC(C[N+](C)(C)C)OC(N)=O (stereo not given),Potency,[1],inactive
same,Potency,[2],inactive
CC1(COc2ccc(CC3SC(=O)NC3=O)cc2)CCCCC1 (stereo not given),Potency,[3],active: 23.9 µM
same,Potency,[4],"inconclusive: 33.5 µM [cytotoxic, single point]"
same,Potency,[5],"inconclusive: 9.44 µM [activator, full curve, poor fit]"
same,Potency,[6],"inconclusive: 23.9 µM [cytotoxic, partial curve]"
same,Potency,[7],"inconclusive: 21.3 µM [activator, single point]"
same,Potency,[8],"inconclusive: 8.49 µM [fluorescent, partial curve, poor fit]"
CC(C)(C)NC[C@H](O)COc1nsnc1N1CCOCC1,Potency,[2],inactive
same,Potency,[9],inactive
CC1OC(=O)C(C)OC1=O (stereo not given),Potency,[10],inactive
same,Potency,[11],inactive
same,Potency,[12],inactive
same,Potency,[9],"inconclusive: 61.1 µM [rising, single point]"
CCCCCCCCCCCCCCCCI,Potency,[6],"inconclusive: 0.119 µM [cytotoxic, single point]"
same,"activity change, negative = inhibition",[13],inactive: -4.61% [at 19 µM]
O=C(O)c1cccc(O)c1,Potency,[7],inactive
O=c1cc[nH]c(=S)[nH]1,"activity change, negative = inhibition",[14],inconclusive: -13% [at 81.1 µM]
COC(=O)c1cc(Cl)ccc1[N+](=O)[O-],Potency,[15],inactive
same,Potency,[9],inactive
same,Potency,[16],"inconclusive: 61.1 µM [activator, single point]"
CN1CCCC1,Potency,[14],inactive
CC1(C)OC(=O)Nc2ccc(Br)cc21,Potency,[17],inactive
same,"activity change, negative = inhibition",[14],inconclusive: 17.9%
CC1(C)CC(O)CC(C)(C)N1[O],Potency,[14],inactive
CC(=O)OC(C(=O)c1ccccc1)c1ccccc1 (stereo not given),Potency,[18],"inconclusive: 55.2 µM [rising, partial curve]"
same,Potency,[19],"inconclusive: 49.2 µM [rising, partial curve, poor fit]"
same,Potency,[12],"inconclusive: 49.2 µM [rising, single point]"
same,Potency,[16],inconclusive: 61.4 µM [activator]
N#Cc1ccc(CC(=O)c2cccc(C(F)(F)F)c2)cc1,Potency,[1],"inconclusive: 15.5 µM [cytotoxic, full curve]"
same,Potency,[2],inactive
same,Potency,[18],"inconclusive: 54.9 µM [cytotoxic, single point]"
same,Potency,[19],"inconclusive: 24.5 µM [cytotoxic, partial curve]"
same,Potency,[12],"inconclusive: 54.9 µM [cytotoxic, single point]"
same,Potency,[13],inactive
same,"activity, negative = inhibition",[8],inconclusive: -1.9%
same,Potency,[16],inconclusive: 61.1 µM [activator]
COc1ccc(OC)c(NC(=O)CC(C)=O)c1,Potency,[16],active: 54.5 µM
COc1ccc(C)cc1N,Potency,[3],inactive
same,Potency,[20],"inconclusive: 21.1 µM [rising, full curve, poor fit]"
same,Potency,[1],inactive
same,Potency,[16],"inconclusive: 66.3 µM [activator, partial curve, poor fit]"
CCc1c(Br)c(Br)c(Br)c(Br)c1Br,Potency,[7],inactive
CC(C)(C)c1ccc(S)cc1,Potency,[10],"inconclusive: 43.3 µM [rising, partial curve, poor fit]"
same,Potency,[18],inactive
Cc1scc2c1N(C(=O)CN1CCN(C)CC1)c1ccccc1NC2=O,Potency,[20],inactive
CC1=CC(=O)[C@H]2C[C@@H]1C2(C)C,Potency,[1],inactive
same,Potency,[2],inactive
CS(=O)(=O)O,Potency,[3],"inconclusive: 5.53 µM [rising, partial curve, poor fit]"
same,Potency,[9],inactive
C=CN1CCCCCC1=O,Potency,[4],"inconclusive: 27.3 µM [rising, partial curve, poor fit]"
same,Potency,[17],"inconclusive: 0.155 µM [rising, partial curve, poor fit]"
O=C(c1ccccc1)c1cccc(O)c1,Potency,[10],"inconclusive: 27.7 µM [rising, partial curve]"
same,"activity change, negative = cytotoxicity",[20],inconclusive: -5.84% [at 81.1 µM]
C=COC(=O)C(C)(CC)CCC(C)C (stereo not given),Potency,[1],inactive
same,Potency,[18],inactive
O=C(O)c1c(Cl)ccc(Cl)c1Cl,Potency,[5],"inconclusive: 24.3 µM [activator, partial curve]"
same,Potency,[7],inactive
CCCCCCC(=O)O,"activity change, negative = cytotoxicity",[20],inconclusive: 36%
same,Potency,[15],"inconclusive: 21.9 µM [cytotoxic, single point]"
same,Potency,[2],inactive
CC1=NN(c2cccc(S(=O)(=O)O)c2)C(=O)C1,Potency,[3],"inconclusive: 54.9 µM [rising, single point]"
same,Potency,[1],"inconclusive: 11 µM [cytotoxic, full curve, poor fit]"
same,Potency,[6],"inconclusive: 21.9 µM [cytotoxic, partial curve]"
same,Potency,[9],inactive
